From the RNAGym collection of RNA variant scans (doi:10.1073/pnas.2313332121) come the findings set out here.

Variants at the background level are over-represented here.

B1: TPR 5TU (parent)
chain: GGAUCUUCUCGAUCUAACAAAAAAGACAAAUCUGCCACAAAGCUUGAGAGCAUCUUCGGAUGCAGAGGCGGCAGCCUUCGGUGGCGCGAUAGCGCCAACGUUCUCAACUAUGACACGCAAAACGCGUGCUCCGUUGAAUGGAGUUUAUCAUG

In this data set the parent is B1. Briefly: polymerase ribozyme fitness, log enrichment relative to wild type (log ratio); higher = more active; in vitro selection for triplet polymerase activity. The procedure, abridged: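 In triplicate, a single round of in vitro selection was run on each mutant library, PCR-built and transcribed, covering one subunit of a heterodimeric triplet polymerase ribozyme. Frozen incubation at −7 °C followed annealing with a biotinylated primer, partner subunit and triplets, and extended constructs were then gel-excised, streptavidin-captured and taken through RT-PCR. Fitness is the logarithm of genotype enrichment over wild-type enrichment, from inverse-variance-weighted replicate averages of Illumina-sequenced inputs and outputs. […] only genotypes with ≥10 input reads and ≥1 read per output were kept.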
As for U104G U109A G133C, the “polymerase ribozyme fitness (log ratio)” value is -2.78. The same measure for C96G G141C: -0.919; for C93A G100C U104G: at most -4.2.

With C96G A121C C129U, the “polymerase ribozyme fitness (log ratio)” value is -0.0949. The same measure for C96U A107U: -3.35. On to A91U A115U C118A C131G A138G, for which the “polymerase ribozyme fitness (log ratio)” value is at most -4.2.

With U101A G143C, the “polymerase ribozyme fitness (log ratio)” value was -2.08. The value for G88C G126U U144C was at most -4.2; that for C87A G140C G141A was at most -4.2; that for C87U G92C was -0.38.

As to U90G G124C, the “polymerase ribozyme fitness (log ratio)” value was at most -4.2. The same measure for C87U C132G: -3.72.

For C96A G136A, the “polymerase ribozyme fitness (log ratio)” value is -0.205. The value for A89G A97G C103A U127C U139G was at most -4.2.

G88A G136A: the “polymerase ribozyme fitness (log ratio)” value is -3.83.

For G94C G126A C132A, the “polymerase ribozyme fitness (log ratio)” value is -2.93. The value for G92A C103U was -2.02; that for C87G G143U was at most -4.2; that for C87G G92C G126A was 0.48. The same measure for G92A U144C A147U: -3.46. The value for C95U A98G C105U was 0.768. With U109C A137C, the “polymerase ribozyme fitness (log ratio)” value was at most -4.2. The value for C96U A119C G141A was 0.872; that for C93A U134C was -1.59. The same measure for G94A C123G U146G: -1.05; for G88A C103G A142C: at most -4.2. The same measure for C87A G112C C116G: at most -4.2; for C93A C96U: -3.3. As for A91G A120G C132U G141C, the “polymerase ribozyme fitness (log ratio)” value was at most -4.2. The same measure for C96G A110U U134G U145C: at most -4.2; for A91C A150G: at most -4.2; for C96G C105G: -1.92. The same measure for C87G U139G: at most -4.2; for C87U U151G: -3.96. Take A91U A120G: the “polymerase ribozyme fitness (log ratio)” value was at most -4.2. The same measure for C96A C125U G143A: -3.57; for C87A G128U: at most -4.2; for A97U G117U: -1.25. The same measure for U109C A120U: at most -4.2. The value for A107G C118U U145A was at most -4.2; that for G92A C149A was at most -4.2. With C96G G152U, the “polymerase ribozyme fitness (log ratio)” value is -2.77. The value for A106C C114A G140C G141C was at most -4.2. In the case of C87G A113C U146G, the “polymerase ribozyme fitness (log ratio)” value is at most -4.2. The value for G94U G140A G141U was at most -4.2; that for C87G G92A A107C was at most -4.2. The value for C87U C96G A113U was -2.85; that for C87U A120U U135A C149U U151A was at most -4.2; that for C93U A115U A120G was -2.4. The value for G92U A137G U145C was -1.11; that for C96U A115U A147G was at most -4.2; that for A89U C123U was 0.89.

Turning to G88C A115G A122C U127G, the “polymerase ribozyme fitness (log ratio)” value was at most -4.2.

In the case of U102C U134A, the “polymerase ribozyme fitness (log ratio)” value is -3.46.

Consider G100A A119G G124A, for which the “polymerase ribozyme fitness (log ratio)” value is at most -4.2. The same measure for A91C C125A U135C: at most -4.2. The same measure for G92A C125A U127A U148G: at most -4.2. The same measure for C87A U90G U134G: at most -4.2. U90G A120C U139C: the “polymerase ribozyme fitness (log ratio)” value is at most -4.2. G92C A98G U102A A107G: the “polymerase ribozyme fitness (log ratio)” value is at most -4.2. Consider C96A U104A G124C, for which the “polymerase ribozyme fitness (log ratio)” value is -1.19. The same measure for A110G A122G: -2.84; for C95U U102A A113C C149G: at most -4.2. The same measure for A98U G136C: -3.87; for C93A G140A: -4.11; for C96G C108U: -2.5. The same measure for A106G A115U C118G A138C U139G: at most -4.2. Take G88A A110G A122U: the “polymerase ribozyme fitness (log ratio)” value was -3.97.

As to G88A A113G A115U, the “polymerase ribozyme fitness (log ratio)” value was at most -4.2. The value for C105G A107G C131U was at most -4.2. The value for A89G U101C C118G A121U A137C U148C was at most -4.2; that for U90C G143A was at most -4.2; that for A91C A97G U109C A142C was at most -4.2. The same measure for C87U A89G: -3.41. Regarding A89G G92U C125U U146C, the “polymerase ribozyme fitness (log ratio)” value was -1.03. Regarding G92C A142U, the “polymerase ribozyme fitness (log ratio)” value is -2.07.

Turning to G92U U145A, the “polymerase ribozyme fitness (log ratio)” value worked out at 0.602.

In the case of U90G G92C U139G, the “polymerase ribozyme fitness (log ratio)” value was at most -4.2. Take G88A A97C C131A: the “polymerase ribozyme fitness (log ratio)” value was at most -4.2. The value for G88C A147C G152U was at most -4.2. Regarding U90C G94U G124A C125U, the “polymerase ribozyme fitness (log ratio)” value is -4. The same measure for C87U C95U U111G G117U U130A: at most -4.2; for G94U A113G A142U: at most -4.2; for C87U A121U: -0.38.
